This is one part of the list.
B1: chr11:75572625:75572772:+|3pUTR|ENSG00000149257|msi1|total|mutant (ssRNA)
RNA: GGGAGUUCUACAGUCCGACGAUCUCUGGCGUUGUGGGGAUGAACUUUUUGUUUUGUUUCUUCCUUUUUCCGUUCUUCAAAGACCGGGAGGGAAGGGGGAACAUGAGCCUUUGUUGCUAUCAAUCCAAGAACUUAUUUGUACAUCAACAGAGGAUUGAGCAUCA
B2: ENSG00000198774:stop:overlap|stop_codon|ENSG00000198774|stop_codon|NA|stop_codon (ssRNA)
RNA: GGGAGUUCUACAGUCCGACGAUCGUUCUAACCACAGUCAGGACUCCGAAACAACAGUAGGAGAUGUGGUGCUGUUGUCAACAUAGUUCCAAUGGCUCCUUUCUGACCUGCUUUCAUGUUUUAAUGUUUGUUUAAUUUAAUAGGCAACAGAGGAUUGAGCAUCA
B3: chr5:132541444:132541810:-|three_prime_utr|ENSG00000113525|control|control|control (ssRNA)
RNA: GGGAGUUCUACAGUCCGACGAUCAAAUUGAUAUACUUUUUUCUUAUUUAACUUAACAUUCUGUAAAAUGUCUGUUAACUUAAUAGUAUUUAUGAAAUGGUUAAGAAUUUGGUAAAUUAGUAUUUAUUUAAUGUUAUGUUGUGUCAACAGAGGAUUGAGCAUCA
B4: chr8:23842113:23842214:-|3pUTR|ENSG00000159167|msi1|total|mutant (ssRNA)
RNA: GGGAGUUCUACAGUCCGACGAUCACUUCCGACAUUUUUGUGCCAUUAUAUUUGCAUUAUGUAUUUAUAAUUUAAAUGAUAUUCCGGUUUUUGGCUGAGUACUGGAAUAAACAGUGAGCAUAUCUGGUAUAUGUCAUUAUUUAUCAACAGAGGAUUGAGCAUCA
B5: chr9:132694550:132694651:+|3pUTR|ENSG00000125484|unk|total|mutant (ssRNA)
RNA: GGGAGUUCUACAGUCCGACGAUCUUCCUGAAGAUUACAUAUCAGUGUCCUGCGUUUUUAUCUAAUAUCCGAGCUGAGGUUCCCCGGAAAAUUUUGAAGUGGGGAAGAUUAUGGAGAAAAUGAAAUGGAAAUUUGGGGAGGGUGCAACAGAGGAUUGAGCAUCA
B6: chr9:15171111:15171212:-|3pUTR|ENSG00000155158|unk|FALSE|unique (ssRNA)
RNA: GGGAGUUCUACAGUCCGACGAUCCUGCUUUAAAUGAUAUGUAAAAUAUCAAUAAUUUUUACACUUAAGAUGUUGGUAAGACCUAGUUUUCUAAUCUCUCUAGCACUGUGAUGUCUCCUUGUAGAUAAUCUGGACCUUGCUUAGCAACAGAGGAUUGAGCAUCA

target: MSI1 full-length (mouse, UniProt Q61474 1-362); test: nsRBNS (natural sequence RNA bind-n-seq); RBNS binding buffer (assumed for nsRBNS): 25 mM Tris pH 7.5, 150 mM KCl, 3 mM MgCl2, 0.01% Triton X-100, 500 ug/ml BSA, 20 U/ml SUPERase-In, 4 C; UNK is unkempt and MSI1 is Musashi-1; names of the RNAs are library labels; protein concentration not given here; high values mean tight binding
Chain of UniProt Q61474 (Q61474 whole entry): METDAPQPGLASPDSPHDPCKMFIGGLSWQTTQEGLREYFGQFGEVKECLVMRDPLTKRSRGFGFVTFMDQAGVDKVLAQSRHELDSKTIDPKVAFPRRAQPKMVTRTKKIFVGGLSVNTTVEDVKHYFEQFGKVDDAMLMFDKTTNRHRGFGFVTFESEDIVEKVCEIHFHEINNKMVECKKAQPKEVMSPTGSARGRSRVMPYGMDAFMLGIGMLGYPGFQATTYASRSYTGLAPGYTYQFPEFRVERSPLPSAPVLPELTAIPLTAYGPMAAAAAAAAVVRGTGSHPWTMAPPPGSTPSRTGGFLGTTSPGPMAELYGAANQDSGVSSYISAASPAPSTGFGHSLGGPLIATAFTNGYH

Row | Binder | binding signal [enrichment R]
1 | B1 | 0.28
2 | B2 | 1.42
3 | B3 | 2.88
4 | B4 | 0.621
5 | B5 | 0.579
6 | B6 | 1.69
